# In the supplement of paper PMC8728848:
# The other results are listed elsewhere or left out.
# B1: IDGF2 (Drosophila melanogaster), Q9V3D4 (protein)
# chain: MKAWIWFTFVACLFAASTEAASNLVCYYDSSSYTREGLGKLLNPDLEIALQFCSHLVYGYAGLRGENLQAYSMNENLDIYKHQFSEVTSLKRKYPHLKVLLSVGGDHDIDPDHPNKYIDLLEGEKVRQIGFIRSAYDLVKTYGFDGLDLAYQFPKNKPRKVHGDLGLAWKSIKKLFTGDFIVDPHAALHKEQFTALVRDVKDSLRADGFLLSLTVLPNVNSTWYFDIPALNGLVDFVNLATFDFLTPARNPEEADYSAPIYHPDGSKDRLAHLNADFQVEYWLSQGFPSNKINLGVATYGNAWKLTKDSGLEGVPVVPETSGPAPEGFQSQKPGLLSYAEICGKLSNPQNQFLKGNESPLRRVSDPTKRFGGIAYRPVDGQITEGIWVSYDDPDSASNKAAYARVKNLGGVALFDLSYDDFRGQCSGDKYPILRAIKYRLHHHHHH
# Columns and labels:
# Assay in all cases: glycan array binding signal (z-score within array); higher = stronger binding
# Conditions in all cases: glycan notation: IUPAC condensed, linker removed
# [1] = biological target: Fuc(a1-2)Gal
# Method in brief: (§1)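 Negative Z-scores can be read as non-binding. The Z-score is calculated within each array and then averaged across arrays of one protein sequence at different concentrations or buffers and across linkers. Arrays, 3228 in all, were curated from the Consortium for Functional Glycomics database and kept only where the protein sequence was available.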
# [2] = biological target: Fuc(a1-2)Gal(b1-3)GalNAc
# Method in brief: as §1
# [3] = biological target: Fuc(a1-2)Gal(b1-3)GalNAc(b1-3)Gal
# Method in brief: as §1
# [4] = biological target: Fuc(a1-2)Gal(b1-3)GalNAc(b1-3)Gal(a1-4)Gal(b1-4)Glc
# Method in brief: as §1
# [5] = biological target: Fuc(a1-2)Gal(b1-3)GalNAc(b1-3)Gal(b1-4)Glc
# Method in brief: as §1
# [6] = biological target: Fuc(a1-2)Gal(b1-3)GalNAc(b1-4)[Neu5Ac(a2-3)]Gal(b1-4)Glc
# Method in brief: as §1
# [7] = biological target: Fuc(a1-2)Gal(b1-3)[Fuc(a1-4)]GlcNAc
# Method in brief: as §1
# [8] = biological target: Fuc(a1-2)Gal(b1-4)Glc
# Method in brief: as §1
# [9] = biological target: Fuc(a1-2)Gal(b1-4)Glc6S
# Method in brief: as §1
# [10] = biological target: Fuc(a1-2)Gal(b1-4)GlcNAc
# Method in brief: as §1
# [11] = biological target: Fuc(a1-2)Gal(b1-4)GlcNAc(b1-3)Gal(b1-4)GlcNAc
# Method in brief: as §1
# [12] = biological target: Fuc(a1-2)Gal(b1-4)GlcNAc(b1-3)Gal(b1-4)GlcNAc(b1-3)Gal(b1-4)GlcNAc
# Method in brief: as §1
# [13] = biological target: Fuc(a1-2)Gal(b1-4)GlcNAc6S
# Method in brief: as §1
# [14] = biological target: Fuc(a1-2)Gal(b1-4)[Fuc(a1-3)]GalNAc(b1-3)Gal(b1-4)[Fuc(a1-3)]GlcNAc
# Method in brief: as §1
# [15] = biological target: Fuc(a1-2)Gal(b1-4)[Fuc(a1-3)]GalNAc(b1-3)Gal(b1-4)[Fuc(a1-3)]GlcNAc(b1-3)Gal(b1-4)[Fuc(a1-3)]GalNAc
# Method in brief: as §1
# [16] = biological target: Fuc(a1-2)Gal(b1-4)[Fuc(a1-3)]GlcNAc
# Method in brief: as §1
# [17] = biological target: Fuc(a1-2)Gal6S(b1-4)Glc
# Method in brief: as §1
# [18] = biological target: Fuc(a1-2)Gal6S(b1-4)Glc6S
# Method in brief: as §1
# [19] = biological target: Fuc(a1-2)Gal6S(b1-4)GlcNAc
# Method in brief: as §1
# [20] = biological target: Fuc(a1-2)GlcNAc
# Method in brief: as §1
# [21] = biological target: Fuc(a1-2)[Gal(a1-3)]Gal
# Method in brief: as §1
# [22] = biological target: Fuc(a1-2)[Gal(a1-3)]Gal(b1-3)GlcNAc
# Method in brief: as §1
# [23] = biological target: Fuc(a1-2)[Gal(a1-3)]Gal(b1-4)Glc
# Method in brief: as §1
# [24] = biological target: Fuc(a1-2)[Gal(a1-3)]Gal(b1-4)GlcNAc
# Method in brief: as §1
# [25] = biological target: Fuc(a1-2)[Gal(a1-3)]Gal(b1-4)[Fuc(a1-3)]GlcNAc
# Method in brief: as §1
# [26] = biological target: Fuc(a1-2)[Gal(a1-4)]Gal(b1-4)GalNAc
# Method in brief: as §1
# [27] = biological target: Fuc(a1-2)[GalNAc(a1-3)]Gal
# Method in brief: as §1
# [28] = biological target: Fuc(a1-2)[GalNAc(a1-3)]Gal(b1-3)GlcNAc
# Method in brief: as §1
# [29] = biological target: Fuc(a1-2)[GalNAc(a1-3)]Gal(b1-4)Glc
# Method in brief: as §1
# [30] = biological target: Fuc(a1-2)[GalNAc(a1-3)]Gal(b1-4)GlcNAc
# Method in brief: as §1
# [31] = biological target: Fuc(a1-2)[GalNAc(a1-3)]Gal(b1-4)[Fuc(a1-3)]GlcNAc
# Method in brief: as §1
# [32] = biological target: Fuc(a1-2)[GalNAc(a1-4)]Gal(b1-4)GlcNAc
# Method in brief: as §1
# [33] = biological target: Fuc(a1-3)GlcNAc
# Method in brief: as §1
# [34] = biological target: Fuc(a1-3)[Gal(b1-4)]Glc6S
# Method in brief: as §1
# [35] = biological target: Fuc(a1-3)[Gal(b1-4)]GlcNAc
# Method in brief: as §1
# [36] = biological target: Fuc(a1-3)[Gal(b1-4)]GlcNAc(b1-3)Gal(b1-3)[Fuc(a1-4)]GlcNAc
# Method in brief: as §1
# [37] = biological target: Fuc(a1-3)[Gal(b1-4)]GlcNAc(b1-4)Gal(b1-4)[Fuc(a1-3)]GlcNAc
# Method in brief: as §1
# [38] = biological target: Fuc(a1-3)[Gal(b1-4)]GlcNAc(b1-4)Gal(b1-4)[Fuc(a1-3)]GlcNAc(b1-4)Gal(b1-4)[Fuc(a1-3)]GlcNAc
# Method in brief: as §1
# [39] = biological target: Fuc(a1-3)[Gal(b1-4)]GlcNAc6S
# Method in brief: as §1
# [40] = biological target: Fuc(a1-3)[Gal3S(b1-4)]Glc
# Method in brief: as §1
# [41] = biological target: Fuc(a1-3)[Gal3S(b1-4)]Glc6S
# Method in brief: as §1
# [42] = biological target: Fuc(a1-3)[Gal3S(b1-4)]GlcNAc
# Method in brief: as §1
# [43] = biological target: Fuc(a1-3)[Gal3S(b1-4)]GlcNAc6S
# Method in brief: as §1
# [44] = biological target: Fuc(a1-3)[GalNAc(b1-4)]Gal(b1-4)GlcNAc
# Method in brief: as §1
# [45] = biological target: Fuc(a1-4)GlcNAc
# Method in brief: as §1
binder,measurement,setting,value
B1,glycan array binding signal (z-score),[1],-0.319
same,glycan array binding signal (z-score),[2],-0.317
same,glycan array binding signal (z-score),[3],-0.519
same,glycan array binding signal (z-score),[4],-0.27
same,glycan array binding signal (z-score),[5],-0.012
same,glycan array binding signal (z-score),[6],-0.23
same,glycan array binding signal (z-score),[7],-0.463
same,glycan array binding signal (z-score),[8],-0.098
same,glycan array binding signal (z-score),[9],0.468
same,glycan array binding signal (z-score),[10],-0.274
same,glycan array binding signal (z-score),[11],-0.26
same,glycan array binding signal (z-score),[12],-0.398
same,glycan array binding signal (z-score),[13],-0.346
same,glycan array binding signal (z-score),[14],-0.095
same,glycan array binding signal (z-score),[15],0.126
same,glycan array binding signal (z-score),[16],-0.166
same,glycan array binding signal (z-score),[17],-0.159
same,glycan array binding signal (z-score),[18],-0.583
same,glycan array binding signal (z-score),[19],-0.274
same,glycan array binding signal (z-score),[20],-0.432
same,glycan array binding signal (z-score),[21],-0.151
same,glycan array binding signal (z-score),[22],8.27
same,glycan array binding signal (z-score),[23],6.99
same,glycan array binding signal (z-score),[24],7.65
same,glycan array binding signal (z-score),[25],-0.366
same,glycan array binding signal (z-score),[26],-0.291
same,glycan array binding signal (z-score),[27],-0.184
same,glycan array binding signal (z-score),[28],-0.223
same,glycan array binding signal (z-score),[29],0.052
same,glycan array binding signal (z-score),[30],-0.296
same,glycan array binding signal (z-score),[31],-0.323
same,glycan array binding signal (z-score),[32],-0.307
same,glycan array binding signal (z-score),[33],-0.251
same,glycan array binding signal (z-score),[34],0.706
same,glycan array binding signal (z-score),[35],-0.463
same,glycan array binding signal (z-score),[36],0.936
same,glycan array binding signal (z-score),[37],-0.206
same,glycan array binding signal (z-score),[38],-0.319
same,glycan array binding signal (z-score),[39],-0.054
same,glycan array binding signal (z-score),[40],0.261
same,glycan array binding signal (z-score),[41],0.173
same,glycan array binding signal (z-score),[42],0.026
same,glycan array binding signal (z-score),[43],0.168
same,glycan array binding signal (z-score),[44],-0.341
same,glycan array binding signal (z-score),[45],-0.384
